Hit rate of the full screen: of about 48,000 compounds, about 550 (1.1%) were called active. Not shown: some 4% with an inconclusive outcome. No stated cut-off is given here; in the data, active means potency below about 15 µM; inconclusive means mostly about 16 µM to 33 µM; inactive means weaker than that. This is one part of the list.
Target: Lysosomal acid glucosylceramidase (Homo sapiens) (UniProt P04062)
Experiment: Glucocerebrosidase;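 further: the screen sought inhibitors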
Conditions: purified enzyme, resorufin glucoside fluorescence (screen aimed at inhibitors), 20 min
Procedure, shortened: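 Wild-type enzyme at 0.2 nM final in 50mM citric acid/KH2PO4, 10mM sodium taurocholate, 0.01% tween-20, pH 5.9, with resorufin beta-D-glucopyranoside at 30 uM final. Compounds titrated, 20 min at RT, red fluorescence read; AC50 from titration.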
Potency means the concentration at half of the fitted maximal effect.

Sequence of UniProt P04062 (P04062 whole entry, looked up): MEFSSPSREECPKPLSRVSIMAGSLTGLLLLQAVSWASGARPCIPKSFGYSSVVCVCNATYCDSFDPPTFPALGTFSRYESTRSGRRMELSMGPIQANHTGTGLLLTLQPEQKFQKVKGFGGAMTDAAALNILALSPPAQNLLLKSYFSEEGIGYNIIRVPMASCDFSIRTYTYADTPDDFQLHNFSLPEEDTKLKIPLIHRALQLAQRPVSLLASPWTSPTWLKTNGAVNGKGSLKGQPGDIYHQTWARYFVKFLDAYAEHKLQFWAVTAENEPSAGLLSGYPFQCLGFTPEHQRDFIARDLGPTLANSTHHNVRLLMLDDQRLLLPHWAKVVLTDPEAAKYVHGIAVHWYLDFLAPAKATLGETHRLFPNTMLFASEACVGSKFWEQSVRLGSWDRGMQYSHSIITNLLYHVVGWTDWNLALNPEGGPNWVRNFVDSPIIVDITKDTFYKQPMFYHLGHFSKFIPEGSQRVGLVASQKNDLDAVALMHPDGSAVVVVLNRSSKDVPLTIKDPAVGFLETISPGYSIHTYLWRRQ

Potency, inactive:
O=S(=O)(NCc1ccc2c(c1)OCO2)c1ccc2c(c1)oc1ccccc12 > 76.9 µM
CCCCn1c(=S)[nH]c2c(oc3ccc(Cl)cc32)c1=O > 76.9 µM
O=C(c1c[nH]c2ccc(S(=O)(=O)N3CCOCC3)cc2c1=O)N1CCCC1 > 76.9 µM
C=CCn1c(=O)c2c(C)c(C)sc2n2c(Nc3ccc(OC)cc3)nnc12 > 76.9 µM
NC(=O)c1c(-c2cccs2)csc1N > 76.9 µM
Cc1onc(-c2ccccc2)c1C(=O)N1CCN(C(=O)c2ccco2)CC1 > 76.9 µM
O=C(NC(NCc1ccccn1)(C(F)(F)F)C(F)(F)F)c1ccco1 > 76.9 µM
COc1ccc(CCC(=O)Nc2ccc(Br)cn2)cc1 > 76.9 µM
Cc1sc2nc(C3CC3)nc(SCC(=O)NCc3ccco3)c2c1C > 76.9 µM
COCCCNc1ccnc2c(Cl)cccc12 > 76.9 µM
CCC(C(=O)Nc1cnccn1)c1ccccc1 (centres undefined) > 76.9 µM
O=C(CN1CCC(n2nnc3ccccc32)CC1)Nc1ccc2c(c1)CCC2 > 76.9 µM
O=C1NC(c2ccccc2)(C(F)(F)F)SC2=CCCCCN12 (centres undefined) > 76.9 µM
CN(C)S(=O)(=O)c1ccc(C(=O)N2CCCC2c2nc3ccccc3s2)cc1 (centres undefined) > 76.9 µM
O=S1(=O)NC(=NCc2ccccc2)c2ccccc21 > 76.9 µM
CC(=O)N1CCN(c2ccccc2NC(=O)c2cc(Br)ccc2Cl)CC1 > 76.9 µM
COc1ccc(CCN2CCCn3c2nc2c3c(=O)n(Cc3ccccc3F)c(=O)n2C)cc1OC > 76.9 µM
Cc1ccc(N2CCN(C(=O)c3ccccc3)CC2)c(C)c1 > 76.9 µM
Cc1ccc2cc(CCNC(=O)c3ccc(Br)o3)c(=O)[nH]c2c1 > 76.9 µM
CCc1c(C)[nH]c(=S)c(C#N)c1C > 76.9 µM
O=C(Nc1ccc(N2CCN(c3ccc(O)cc3)CC2)cc1)Oc1ccccc1 > 76.9 µM
CC(=O)CN1Cc2ccccc2/C1=N\C(=O)Nc1ccccc1 > 76.9 µM
Cc1cc(N2CCN(c3ccccc3F)CC2)nc2cc(O)ccc12
Cc1ccc(SCc2cc(=O)n3[nH]cnc3n2)cc1 > 76.9 µM
Cc1ccc2c(c1)N(CCC(=O)NCC1CCCO1)C(=O)CO2 (centres undefined) > 76.9 µM
CSc1nc(NC(C)C)nc(N2CCOCC2)n1 > 76.9 µM
COc1ccc(C(CNC(=O)C2CC(=O)N(Cc3ccc(C)cc3)C2)N(C)C)cc1 (centres undefined) > 76.9 µM
Cc1cc2oc(=O)cc(C)c2cc1NC(=O)CCC(=O)O > 76.9 µM
CC(=O)c1c(N2CCN(C(=O)C3CCCO3)CC2)nc(=S)n(-c2ccccc2)c1C (centres undefined) > 76.9 µM
N#Cc1ccc(COC(=O)Cn2nnc(-c3ccccc3)n2)cc1 > 76.9 µM
CCOC(=O)CSc1nc2c(cnn2-c2ccc(C)cc2)c(=O)[nH]1 > 76.9 µM
COc1ccc(C(=O)C2CCN(S(=O)(=O)c3ccc4c(c3)OCCO4)CC2)cc1 > 76.9 µM
COc1ccc2nc3oc(C(=O)N4CCCCC4)cc3cc2c1 > 76.9 µM
O=C(Cc1ccc(F)cc1)OCC(=O)c1cc2ccccc2o1 > 76.9 µM
CC1=CC(c2ccccc2)n2nc(N3C(=O)c4ccccc4C3=O)nc2N1 (centres undefined) > 76.9 µM
Cc1c(NC(=O)C(C)Oc2ncnc3ccccc23)c(=O)n(-c2ccccc2)n1C (centres undefined) > 76.9 µM
CCCS(=O)(=O)N1CCCC(C(=O)NCC2CCCO2)C1 (centres undefined) > 76.9 µM
O=C(Nc1ccc(N2CCCCC2)cc1)c1cccnc1
Cn1nnnc1SCc1cc(=O)n2ccsc2n1 > 76.9 µM
CCOc1ccc(Nc2nc(Cc3nnc(SCC(N)=O)o3)cs2)cc1 > 76.9 µM
CCc1nc2oc3ccccc3c(=O)c2c(=O)n1Cc1ccc(OC)cc1 > 76.9 µM
COc1ccccc1OCCSc1ncnc2nc[nH]c12 > 76.9 µM
CCn1c(=O)c2c(cnn2C)c2ccccc21 > 76.9 µM
COCCN1C(=O)c2ccc(C(=O)NCc3cccnc3)cc2C1=O > 76.9 µM
CCOCCCNS(=O)(=O)c1ccc2c(c1)CCN2C(C)=O > 76.9 µM
Cn1c(SC2C(=O)CC(C)(C)CC2=O)nnc1-c1ccco1 > 76.9 µM
O=C(c1ccc(Br)o1)N1CCN(c2ccc(F)cc2)CC1 > 76.9 µM
COc1ccc(C)c2sc(N3CCCC3)nc12 > 76.9 µM
CC(=O)OCCn1c(Br)nc2c1c(=O)[nH]c(=O)n2C > 76.9 µM
CCCCCCn1c(N2CCC(C)CC2)nc2c1c(=O)[nH]c(=O)n2C > 76.9 µM
CCCCn1c(C(C)O)nc2ccccc21 (centres undefined) > 76.9 µM
Cc1cc(C)n(C(=O)CNC(=O)COc2ccccc2)n1 > 76.9 µM
CC1(C)NC(=O)N(CCCOc2ccc(Br)cc2Cl)C1=O > 76.9 µM
CC(C)N1C(=O)C2C(C(=O)NC3CCCCC3)C3C=CC2(O3)C1C(=O)NC1CCCC1 (centres undefined) > 76.9 µM
c1csc(-c2nn3c(C4COc5ccccc5O4)nnc3s2)c1 (centres undefined)
O=C(c1cccc(COc2ccc(Cl)cc2Cl)c1)N1CCN(c2ccccn2)CC1
COc1ccc(-c2nc(-c3ccncc3)no2)cc1OC > 76.9 µM
Cc1cc(C(F)F)n2nc(C(=O)O)nc2n1 > 76.9 µM
COCCSc1nnc(NC(=O)C2CCCO2)s1 (centres undefined) > 76.9 µM
Cn1cccc1Cc1nnc(SCC(=O)NCC2CCCO2)n1CCc1ccccc1 (centres undefined) > 76.9 µM
Cc1[nH]cnc1CSCCN > 76.9 µM
COc1cccc(-c2cc(C(F)(F)F)n3nc(N)nc3n2)c1 > 76.9 µM
O=C(NCCN1CCN(c2ccccc2F)CC1)C1CC(=O)N(C2CCCC2)C1 (centres undefined) > 76.9 µM
CCOc1ccc(C(=O)N(Cc2ccc(N(C)C)cc2)C2CCS(=O)(=O)C2)cc1 (centres undefined) > 76.9 µM
CS(=O)(=O)N1CCC(NC(=O)Cc2ccccc2)CC1 > 76.9 µM
O=C(CSc1nnc(COc2ccccc2)o1)N1CCN(c2ccccc2)CC1 > 76.9 µM
O=C(CCn1nc(-c2ccccc2)ccc1=O)N1CCCC1 > 76.9 µM
O/N=C(/CN(O)/C=C1/C=CC=N1)c1cccs1 > 76.9 µM
O=C(CP(=O)(CO)CO)c1ccc(Cl)cc1 > 76.9 µM
CCC(C)C(=O)Nc1c2c(nc3c1CCC3)CCCC2 (centres undefined) > 76.9 µM
CCCc1cc(=O)[nH]c(SC(CC)C(=O)Nc2ccccc2C#N)n1 (centres undefined) > 76.9 µM
COc1ccc(CC(=O)Nc2ccc(N3CCN(c4ccc(OC)cc4)CC3)c(C#N)c2)cc1 > 76.9 µM
Cc1c(C)c2cc3c4c(oc3c(C)c2oc1=O)CCCC4 > 76.9 µM
CCOC(=O)N1CCN(C(=O)C2CCCN(c3ncnc4c3sc3cccc(F)c34)C2)CC1 (centres undefined) > 76.9 µM
COc1ccc(N(C(=O)c2cccc(OC)c2OC)C2C=CS(=O)(=O)C2)c(OC)c1 (centres undefined) > 76.9 µM
CCCCn1nnc(NC(=O)CC23CC4CC(CC(C4)C2)C3)n1 > 76.9 µM
Cc1ccc(S(=O)(=O)N2CCN(S(C)(=O)=O)C2)cc1 > 76.9 µM
CCOC(=O)/C=C1\SCC(=O)N1Cc1ccc(Br)cc1 > 76.9 µM
COc1cccc(-n2c(SCC(=O)N3CCOCC3)nc3c([nH]c4ccccc43)c2=O)c1 > 76.9 µM
CN(CC(=O)Nn1cnnc1)S(=O)(=O)c1cc(Cl)ccc1Cl > 76.9 µM
CC(NC(=O)c1cccs1)C(=O)NC1=NCCS1 (centres undefined) > 76.9 µM
COc1cccc(NC(=O)CN2CCN(c3ccc(F)cc3)CC2)c1 > 76.9 µM
CCCCn1c(Cc2ccccc2)n[nH]c1=S > 76.9 µM
CCOc1nc(-c2ccc(C)cc2)ccc1-c1noc(COC)n1 > 76.9 µM
COc1ccc(NC(=O)CC(Cc2ccccc2)C(=O)O)cc1 (centres undefined) > 76.9 µM
CC(=O)N1CCN(S(=O)(=O)c2ccc(S(=O)(=O)NCC(C)C)cc2)CC1 > 76.9 µM
CCOC(=O)C1=C(C)N=C2SCCC(=O)N2C1c1cccs1 (centres undefined) > 76.9 µM
O=C1NC(c2cc3c(cc2Cl)OCO3)Oc2ccccc21 (centres undefined) > 76.9 µM
CCCCCCNC(=O)C(C#N)c1nc2ccccc2nc1N1CCCC1 (centres undefined) > 76.9 µM
COc1ccc(-n2c(=O)[nH]cc(C(=O)Nc3ccc4c(c3)OCCO4)c2=O)cc1 > 76.9 µM
CCOC(=O)C(NC(C)=O)(Nc1ccc(S(=O)(=O)Nc2onc(C)c2C)cc1)C(F)(F)F (centres undefined) > 76.9 µM
CCc1ccc(CCC(=O)Nc2nccs2)o1 > 76.9 µM
O=C(CSc1nnc(-c2cccnc2)n1Cc1ccco1)NCc1ccc2c(c1)OCO2 > 76.9 µM
CS(=O)(=O)N(CC(=O)NCc1ccco1)Cc1ccc(Cl)cc1 > 76.9 µM

Source: PubChem BioAssay AID360 (National Center for Advancing Translational Sciences (NCATS), 2006)
